This note sets out measurements from article PMC12136788.

Positions count from the first letter of the chain named. Some of the results follow.

The labels stand for the following.
B1: chr2:73226876:73226918:+|3pUTR|ENSG00000135632|msi1_unk|FALSE|overlapping (ssRNA)
RNA: GGGAGUUCUACAGUCCGACGAUCAUCUUUAGGGUCUCCACAGACUAACAUUGAAGUCUUCCAGAAACCUCGAGGAGCUGGGCUAGAUACUUCGAGAGUAGCCCUGUCUUGUCCCCUCCUACCCCCAGAUUAGCACCACCCCUCCAACAGAGGAUUGAGCAUCA
B2: ENSG00000136451:be:win_1751|3pUTR|ENSG00000136451|bound_else_gene|NA|bound_elsewhere_windowed (ssRNA)
RNA: GGGAGUUCUACAGUCCGACGAUCUCACUGGACCACUUUAGUUUAAUCAGAAAUUCCUUUUAGCUGACAACAUUGCUUAAACAGGAUAGUAGUUGGCAAGAUGAAAUGCCAGAAUUAAAACCAAUCAUAAGUAGAACCCACUUCCAACAGAGGAUUGAGCAUCA
B3: chr1:211748167:211748268:-|3pUTR|ENSG00000123684|msi1|FALSE|unique (ssRNA)
RNA: GGGAGUUCUACAGUCCGACGAUCGUACUGCAUCAGUGAGAUGAGUAGGGUUUUUGUUUGGGAUUGUAAGACUAUUAAGAUCCUAGUAAGUCAGUGGUAGUUUACUGUGAUGUGAGCAUUGUAGAUUCCCCCGUUGUCACUAAUCAACAGAGGAUUGAGCAUCA
B4: chr1:214641902:214642005:+|CDS|ENSG00000117724|unk|FALSE|bound_elsewhere (ssRNA)
RNA: GGGAGUUCUACAGUCCGACGAUCAGAAAUCAAUGUAAUUUUAAACCUCAGAUGGAUCUUGAAGUUAAAGAAAUUUCUCUAGAUAGUUAUAAUGCGCAGUUGGUGCAAUUAGAAGCUAUGCUAAGAAAUAAGGAAUUAAAACUUCAACAGAGGAUUGAGCAUCA
B5: chr16:23068607:23068708:-|CDS|ENSG00000103404|msi1|FALSE|unique (ssRNA)
RNA: GGGAGUUCUACAGUCCGACGAUCCCUGCCACAAGGAGCCCUUUCCCACCUGGGAAGAGCAGGACUUCAGACCACAGCUUGAGUAGAGAGGGCUCCAGACAAAGCUUGGGUUCUGACAGAGCCAGCGCCACCUCCACCUCCAAACAACAGAGGAUUGAGCAUCA
B6: ENSG00000070961:be:win_3801|3pUTR|ENSG00000070961|bound_else_gene|NA|bound_elsewhere_windowed (ssRNA)
RNA: GGGAGUUCUACAGUCCGACGAUCUUAUUUUUUUAAAAAAAAAAAAGCAAAGCUUUCUGCCAGACUGAGGGUGCUUUUUGGGGGGUGGGAGAAAUGAACUGACAGAUAAACAGUAACUCAGCGUAAGUGACCUGUGGAUCAUCACAACAGAGGAUUGAGCAUCA
B7: chr16:23068607:23068708:-|CDS|ENSG00000103404|msi1|total|mutant (ssRNA)
RNA: B5 RNA with U83C, A84C
B8: chr7:77749912:77750028:+|CDS|ENSG00000187257|unk|total|mutant (ssRNA)
RNA: GGGAGUUCUACAGUCCGACGAUCUGCAGCUUUCUACGUGAUGGGUAUUGUUCAUGGGGCAGCUACUUAUUUACCUGACUUUUCCGACUAUUUUUCAUUUAAUUUUCCCAAUUCACCAGUGAAAAUGGAGAUAUUGGGAAAGAACAACAGAGGAUUGAGCAUCA
B9: chr11:118750849:118750950:-|3pUTR|ENSG00000110367|msi1|FALSE|unique (ssRNA)
RNA: GGGAGUUCUACAGUCCGACGAUCAUUCUAGAAAGUACUUUGGCCUCGUGCUGUAGAGAGCAGAUUUCUAUGGUACCCUGUGUUAGUAAAGGGGCCCAGAAAUCUGGGAUGUACUGUUUGCUGCCACACUGUCUCAUCUAGUACCAACAGAGGAUUGAGCAUCA
B10: chr14:74902662:74902763:+|3pUTR|ENSG00000119689|msi1|FALSE|unique (ssRNA)
RNA: GGGAGUUCUACAGUCCGACGAUCCCCCUGGGGACCAUGUGAUUAAGUUCCUAUCUUUUGAAAGUUUGUUCUGCAGAGACUUCUAGGAGGAUGCUGUGCCUCCCAAGCUCAGAGCAGCCUCUGUCCUGGCUGUGCACAUUCUCCCAACAGAGGAUUGAGCAUCA
B11: chr7:98206920:98207021:+|3pUTR|ENSG00000164715|unk|total|mutant (ssRNA)
RNA: GGGAGUUCUACAGUCCGACGAUCGUUCUGCAUUAAGCCCCAGGUUCUCUUCUGGCUUUGAAAGGGCCCGAGUGCUCCCAGUGCCGCUUCGUCACAUCGUCACGAGCCCCUGUGGUCAUGGGCGACCUCACACCUCCCUCCCUGCAACAGAGGAUUGAGCAUCA
B12: chr15:52547342:52547511:-|3pUTR|ENSG00000128989|msi1|total|mutant (ssRNA)
RNA: GGGAGUUCUACAGUCCGACGAUCAACAUAUUUAAUAUUAUGCCCUUGGAUCUGUUACUGCAUCACCCGCACUUGUGAUGCAACCGAACACUUCGCCUGUACUGAAAGGGCCAAGAGUAAAUGCCUUGUUUUGUUUUUUUGUUUCAACAGAGGAUUGAGCAUCA
B13: chr14:80199969:80200157:-|3pUTR|ENSG00000211448|msi1|total|mutant (ssRNA)
RNA: GGGAGUUCUACAGUCCGACGAUCUUUAUGAUUUCUUGUGAUGUAUUCUUUUAUGAAAUUAACAAGAACUCAUUAUUUUGAGGCCGAGGAAAAUCAAUGCUUUAUCUGAUAUGCUGAGAAAUUAUCCGAUUGCCAAUACUCAUGCAACAGAGGAUUGAGCAUCA
B14: chr7:111727939:111728040:-|3pUTR|ENSG00000128512|unk|FALSE|unique (ssRNA)
RNA: GGGAGUUCUACAGUCCGACGAUCAAGUGGUAAAUAGUGAUAAAGACUCCUUUUGUACCUUUUUAUGUUCACUUUUUUUUAUAUAGUUUAAUCUUAAAACCAAUACGAUAUUGUCAAACGAUACAAUGUGUGACAAUGUUGUAUCAACAGAGGAUUGAGCAUCA

In this assay the target is MSI1 full-length (mouse, UniProt Q61474 1-362). The assay is described as follows: nsRBNS (natural sequence RNA bind-n-seq); RBNS binding buffer (assumed for nsRBNS): 25 mM Tris pH 7.5, 150 mM KCl, 3 mM MgCl2, 0.01% Triton X-100, 500 ug/ml BSA, 20 U/ml SUPERase-In, 4 C; UNK is unkempt and MSI1 is Musashi-1; names of the RNAs are library labels; protein concentration not given here; high values mean tight binding.
Chain of UniProt Q61474 (Q61474 whole entry): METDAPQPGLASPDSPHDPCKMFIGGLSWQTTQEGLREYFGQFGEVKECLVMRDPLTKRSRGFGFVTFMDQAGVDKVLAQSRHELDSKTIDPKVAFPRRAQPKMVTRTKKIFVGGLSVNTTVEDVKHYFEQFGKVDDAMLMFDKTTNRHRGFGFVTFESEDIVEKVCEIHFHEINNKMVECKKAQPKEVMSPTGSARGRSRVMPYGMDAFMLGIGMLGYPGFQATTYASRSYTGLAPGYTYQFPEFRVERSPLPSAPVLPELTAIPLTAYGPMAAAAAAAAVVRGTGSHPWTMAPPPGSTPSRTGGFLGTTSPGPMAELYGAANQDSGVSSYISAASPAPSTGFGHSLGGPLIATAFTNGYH
Consider B1, for which the binding signal was 1.25 enrichment R.

Molecule B2 showed a binding signal of 6.85 enrichment R.

As for B3, the binding signal stood at 0.944 enrichment R.

B4 displayed a binding signal of 0.847 enrichment R.

In the case of B5, the binding signal turned out to be 0.445 enrichment R.

Molecule B6 yielded a binding signal of 0.497 enrichment R.

Regarding B7, the binding signal was determined as 0.445 enrichment R.

B8: the binding signal was found to be 0.345 enrichment R.

B9 gave a binding signal of 2.81 enrichment R.

In the case of B10, the binding signal worked out at 0.338 enrichment R.

With B11, the binding signal was 0.884 enrichment R.

B12: the binding signal came out at 0.464 enrichment R.

In turn, B13 had a binding signal of 0.283 enrichment R.

Consider B14, for which the binding signal worked out at 37.8 enrichment R.
